In PubChem BioAssay AID1508624 (National Center for Advancing Translational Sciences (NCATS), 2021):
Screen size: about 48,000 compounds; about 120 (0.25%) were called active. Roughly 4% stayed inconclusive and do not appear here. The call rests on the fitted dose curve; in most records, active means well fitted activation curve with a large enough effect; inconclusive means small, poorly fitted or top-dose-only effect, or another doubt; inactive means no such curve, though single readings can be large or run the other way. This is one part of the list.

Assay: Primary qHTS for Identification of Small Molecule Activators of Huntingtin-Antisense Promoter Activity; further: nearly all actives have a fitted effect of over 55% in size
Conditions: HEK293 HTT-AS promoter firefly luciferase reporter (activity 0% = vehicle and -100% = no light), 24 h; series mostly up to 57.5 µM; activity change, positive = activation: at the top concentration
Method in brief: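 HEK293 luciferase promoter-reporter cells (2,500/well) plated 24 h, then compounds added at up to 57.5 uM final for 24 h at 37 °C. Firefly luminescence by Dual-Glo, normalized to vehicle (0%) and zero RLU (-100%).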

Activity change, positive = activation, inactive:
COc1ccc(C(C)=O)cc1CSc1nc(NCCc2ccccc2)c2ccccc2n1 0.0818%
COc1ccc(C(=O)NNc2ncnc3c2cnn3-c2cccc(Cl)c2)cc1OC -38.6%
COc1ccc(NC(=O)CCc2nc3c(C)nn(-c4ccc(C)cc4)c3n(C)c2=O)cc1 2.62%
Cc1ccc(NC(=O)C2CCN(S(=O)(=O)c3c(C)noc3/C=C/c3cccs3)CC2)cc1F -33.1%
CCCS(=O)(=O)c1c(S(=O)(=O)CCC)c2cc(CC)ccn2c1C(=O)c1ccc(Cl)cc1 -21.3%
Cc1cccc(N(CC(=O)NCCSCc2cccc(Cl)c2)S(=O)(=O)c2ccccc2)c1C -37.6%
COc1ccc(Cl)cc1CNCCSc1nnnn1-c1ccccc1 4.5%
COc1ccc(C2NC(=O)N(C)C3=C2C(=O)N(c2cccc(C(=O)O)c2)C3)cc1 (stereo unspecified) -45.5%
CCOc1ccccc1NC(=O)CCNS(=O)(=O)c1cccc2nonc12 -19.3%
CC(C)Oc1ccc(C(=O)NCC(c2ccc(N(C)C)cc2)N2CCCC2)cc1 (stereo unspecified) 2.54%
Cc1ccc(C)c(NC(=O)Cn2cc(C(=O)c3cccs3)c3ccccc32)c1 -31.9%
COc1cc(C(=O)Nc2ccc3c(c2)N(C2CCCC2)C(=O)c2ccccc2S3)cc(OC)c1OC -20.4%
CCOc1ccccc1NC(=O)C1CCCN1S(=O)(=O)c1ccc2c(c1)C(C)(C)C(=O)N2C (stereo unspecified) -27.1%
Cc1cc(NC(=O)c2ccc3c(c2)OCCO3)cc(-c2nc3ccccc3o2)c1O -2.4%
Cc1ccc(NS(=O)(=O)c2cc(-c3cnc(C4CC4)o3)ccc2C)cc1Cl -36.4%
Nc1c(C(=O)Nc2ccccc2F)sc2nc3c(cc12)CCCCCC3 30.1%
COc1ccc(NC(=O)N2CCOc3ccc(Cl)cc32)cc1 1.33%
Cc1ccc(C(=O)COC(=O)c2cccc(NC(=O)c3ccc(Cl)cc3Cl)c2)cc1 -15.9%
CCC(C(=O)NCc1ccc(OC)c(OC)c1)n1nc(C)c2c(C)n(-c3ccc(C)cc3)nc2c1=O (stereo unspecified) -32.8%
CCOC(=O)c1c(NC(=O)c2cc3nc(-c4ccc(Br)cc4)cc(C(F)(F)F)n3n2)sc(C(C)=O)c1C -14%
COc1ccc(Cc2nc3c4cnn(-c5ccccc5F)c4ncn3n2)cc1 -8.89%
COc1ccc(Cl)cc1N(C)C(=O)c1cc2c(=O)oc3ccc(C)cc3c2s1 -31.2%
CCCCNC(=O)c1cc(-c2ccc(OC)cc2)nc2n[nH]c(-c3cccc([N+](=O)[O-])c3)c12 -1.05%
CCc1ccccc1NC(=O)CN1CCCN(Cc2cc(C)ccc2C)S1(=O)=O -32.6%
CCOC(=O)c1ccccc1NC(=O)CN1CCCN(Cc2cccc(Cl)c2)S1(=O)=O -33.7%
CCCc1nn2c(=O)cc(COC(=O)c3ccc(NC(=O)C4CCCCC4)cc3)nc2s1 -11.1%
CC(C)Cc1nn2c(=O)cc(COC(=O)c3ccccc3NC(=O)C3CCCCC3)nc2s1 -1.53%
Cc1ccc(S(=O)(=O)NCc2nc3cccnc3n2Cc2ccccc2Cl)c(C)c1 -24.3%
CCc1nnc2c(Nc3ccc(N(CC)CC)cc3C)nc3ccccc3n12 -6.96%
Cc1cc(S(=O)(=O)Nc2ccc(C(=O)O)cc2)c(C)c(S(=O)(=O)c2ccc(Cl)cc2)c1 -15%
COc1ccc(C)cc1NC(=O)c1cn(C)c(=O)c2cc(OC)c(OC)cc12 -7.72%
COc1cccc(NS(=O)(=O)c2ccc3c(c2)N(C)C(=O)CC(=O)N3C)c1 8.64%
COc1ccccc1NC(=O)CN1C(=O)c2ccccc2Sc2ccc(C(=O)N3CCCC3)cc21 -29.2%
CCc1ccccc1NC(=O)N1CC(C)Sc2ccccc21 (stereo unspecified) -19.8%
CC(=O)c1ccccc1OCC(O)Cn1c(CO)nc2ccccc21 (stereo unspecified) -6.2%
O=C(Nc1ccc(Br)cc1F)N1CC=C(c2c[nH]c3ccccc23)CC1 -23.2%
CC(=O)c1ccc(NC(=O)c2nc(-c3ccccc3)n(-c3ccccc3)n2)cc1 -14.2%
CC(CCc1ccccc1)NC(=O)CSc1n[nH]c(-c2ccc(F)cc2)n1 (stereo unspecified) -32.8%
COc1ccc(CNC(=O)CN2C(=O)CCn3nc(-c4ccccc4)cc32)c(OC)c1 -5.58%
Cc1cccc(Cn2cc(C(=O)Nc3cc(F)ccc3F)ccc2=O)c1 -18.4%
COc1ccc(-c2ccc(CCC(=O)O)n2-c2ccccc2O)cc1 19.2%
COc1ccc(C(=O)c2sc3nc(-c4ccc(F)cc4)ccc3c2N)cc1 -8.54%
COc1ccc(-c2nc(Cn3c(SCc4cccc(C(F)(F)F)c4)nc4cccnc43)c(C)o2)cc1OC -38.4%
Cc1oc2ncn(C)c(=O)c2c1C(=O)NCc1ccc(Cl)cc1 1.57%
Cn1c(Nc2ccc(Cl)cc2)cc(=O)n(C)c1=O -3.71%
CC1=C(C(=O)Nc2ccc(C)cc2C)C(c2ccc(O)cc2)n2nc(SCC(=O)c3ccc(C)cc3)nc2N1 (stereo unspecified) -12.5%
COc1ccc(-c2nn3c(=O)cc(CN4CCN(S(=O)(=O)c5ccc(C)cc5)CC4)nc3s2)cc1 -4.02%
Cc1cc(OCC(O)CN2CCN(c3cccc(Cl)c3)CC2)ccc1Cl (stereo unspecified) 0.638%
COc1ccc(C(=O)Nc2ccc(S(=O)(=O)N(Cc3ccccc3)c3ccccc3)cc2)cc1 -38.1%
COc1ccccc1C1C(C(=O)Nc2ccccc2)=C(C)Nc2nc(-c3ccccc3)nn21 (stereo unspecified) -14%
Nc1cccc(-c2cc3c(Oc4cccc(O)c4)ncnc3[nH]2)c1 -21.5%
CC(=O)N1CCc2cc(S(=O)(=O)NC(Cc3ccccc3)C(=O)Nc3cc(C)cc(C)c3)ccc21 (stereo unspecified) -2.42%
COc1ccccc1N1CCN(Cc2nc(-c3cc(OC)c(OC)c(OC)c3)no2)CC1 -30.4%
CC1CCCCN1CCCNC(=O)Cn1ncc2c3ccccc3n(Cc3ccccc3)c2c1=O (stereo unspecified) 0.937%
Cc1ccc(Cl)cc1N1CCN(C(=O)CCc2nnc3n(C)c(=O)c4ccccc4n23)CC1 -12.9%
CCN(Cc1ccccc1)C(=O)c1cn(-c2cccc(OC)c2)c(=O)c2ccccc12 -14.1%
Cc1ccc(NC(=O)CSc2nc3n[nH]c(C)c3c(=N)n2-c2ccccc2C)cc1C -38.2%
O=C(Cn1ncc2c3ccccc3n(Cc3ccccc3)c2c1=O)NCCCN1CCCCC1 -1.32%
CC1CN(C(=O)N2CCC(C(=O)NCc3ccco3)CC2)c2ccccc2O1 (stereo unspecified) -8.42%
CCCCC(F)(F)[C@@]1(O)CC[C@H]2[C@H](CC(=O)[C@@H]2CCCCCCC(=O)O)O1 -7.37%
Cc1ccc2ncc(C(=O)c3ccc(C)c(C)c3)c(S(=O)(=O)c3ccccc3)c2c1 -56.7%
CCOc1cccc(C2c3c(oc4ccc(F)cc4c3=O)C(=O)N2c2cc(C)ccn2)c1 (stereo unspecified) -4.83%
CC1CCN(c2nc3ccccc3nc2C(F)(F)F)CC1 9.77%
Cc1cccc(CN2C(=O)c3ccccc3Sc3ccc(C(=O)NCCCN4CCOCC4)cc32)c1 -28.8%
COc1c(O)cc2c(c1O)[C@@H]1O[C@H](CO)[C@@H](O)[C@H](O)[C@H]1OC2=O -6.75%
CCN(CC)S(=O)(=O)c1nnc(NC(=O)c2ccc(C)cc2)s1 10.3%
C[C@@H]1CCN(C(=O)CC#N)C[C@H]1N(C)c1ncnc2[nH]ccc12 -12.6%
Cc1ccc(-c2nc(CS(=O)(=O)CC(=O)N3CCN(c4ccccc4)CC3)c(C)o2)cc1 -44.6%
COc1ccc(CNC(=O)c2cc3c(=O)n(Cc4ccc(OC)cc4)ccc3nc2C)cc1 -28.5%
COc1cc(Br)cc2cc(S(=O)(=O)c3ccccc3)c(=O)oc12 -9.55%
CCCSCCCNC(=O)c1sc2nc(C)cc(C)c2c1-n1cccc1 3.05%
Cc1ccc(-c2noc(-c3cccnc3N(C)Cc3ccc(Cl)cc3)n2)cc1 0.453%
COc1cccc(NCc2nnc3n2CCCCC3)c1 17.2%
CCOc1ccc(NC(=O)CN(c2ccc(C)cc2)S(=O)(=O)c2cccs2)cc1 -7.64%
CCc1cccc(C)c1Nc1c(-c2ccc(N(C)C)cc2)nc2cnccn12 -20.9%
CCCOc1ccc(CN2C(=O)C(=O)c3cccc(C)c32)cc1 -28.3%
Cc1ccc(-n2nc(C)c3c(C)c(CCC(=O)NCc4ccc(Cl)cc4)c(C)nc32)cc1 -4.66%
CCOc1ccc(CNCCSc2nnnn2C)cc1 -7.62%
COc1ccc(-c2cc(C(=O)Oc3ccc(C#N)cc3)no2)cc1 5.85%
COc1ccc(C(C)=O)c(O)c1 -8.91%
COc1ccc(CNC(=O)C(CC(C)C)NS(=O)(=O)c2ccc3c(c2)CCN3C(C)=O)cc1 (stereo unspecified) 17.6%
COc1ccc(-n2nc(C(N)=O)c3c2C(=O)N(c2ccc(N4CCCCC4=O)cc2)CC3)cc1 -11.5%
CCCc1cc(=O)[nH]c(SCc2nc(-c3ccccc3)no2)n1 -13.4%
O=S1(=O)c2ccccc2N(Cc2ccc(F)cc2)c2ccccc21 -40.3%
COc1ccc(Nc2nnc(-n3nc(C)cc3C)c3ccccc23)cc1 -4.76%
O=C(NCCOCCn1c(=O)oc2ccccc21)Nc1ccc(F)cc1F -14.1%
Oc1c(C(c2ccc(Cl)cc2Cl)N2CCN(Cc3ccccc3)CC2)sc2nc(-c3ccco3)nn12 (stereo unspecified) 9.99%
Cc1ccc(CNC(=O)Cn2ccn(-c3ccc(F)c(F)c3)c(=O)c2=O)cc1 -6%
CCC(Sc1nc2ccncc2[nH]1)C(=O)Nc1cc(C)ccc1C (stereo unspecified) -25.8%
CCCn1c(=N)c(C(=O)NCc2ccco2)cc2c(=O)n3cc(C)ccc3nc21 -0.352%
COCCNC(=O)CCCn1c(SCc2ccccc2C)nc2c(sc3ccccc32)c1=O -48.7%
CCn1cc(/C=C(\NC(=O)c2ccccc2Cl)C(=O)NCCCn2ccnc2)c2ccccc21 -12.7%
Cc1ccc(C2N3CC4(C)CN2CC(c2ccccc2)(C3)C4=O)cc1 (stereo unspecified) -2.58%
CCOCCCNC(=O)C(c1ccc(Cl)cc1)N(Cc1ccc2c(c1)OCO2)C(=O)c1ccc(NC(C)=O)cc1 (stereo unspecified) -18.2%
Cc1ccc(CNC(=O)c2ccc(N3Cc4ccccc4Oc4ncccc43)s2)cc1 -31.7%
CCOc1ccc(C(=O)Nc2ccc(C(=O)OCc3cc(=O)n4c(C)csc4n3)cc2)cc1 -35%
